Laboratory results taken from the supplement of paper PMC3334620.
Whole data set: some 33,000 sequences, median “E-score (-0.5 to 0.5)” near -0.013, cut for the highest 2% near 0.3. This is one part of the list.

Molecular target: T1, Msn1 (UniProt P22148)
T1 sequence: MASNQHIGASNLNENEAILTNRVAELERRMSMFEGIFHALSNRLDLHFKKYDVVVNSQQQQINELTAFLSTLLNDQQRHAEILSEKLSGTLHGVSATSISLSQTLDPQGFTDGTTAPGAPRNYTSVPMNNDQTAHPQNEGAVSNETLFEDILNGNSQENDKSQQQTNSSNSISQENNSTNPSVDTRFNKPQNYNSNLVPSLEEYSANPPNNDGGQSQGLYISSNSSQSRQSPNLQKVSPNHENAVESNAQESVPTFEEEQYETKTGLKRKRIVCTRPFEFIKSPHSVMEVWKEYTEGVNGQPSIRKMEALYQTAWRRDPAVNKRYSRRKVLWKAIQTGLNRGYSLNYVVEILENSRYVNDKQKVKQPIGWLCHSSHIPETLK
Experiment: PBM E-score (8-mer binding enrichment) (E-score (-0.5 to 0.5)); higher = stronger / more preferred TF binding; most listed sequences are background and not binding sites
Settings: protein concentration: 200 nM; construct: GST-full length
Method in brief: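 Universal all-10-mer Agilent arrays, double-stranded by primer extension on fresh or once-stripped slides, were probed with about 100-200 nM GST-tagged yeast transcription factors made by PURExpress. Fluorescent anti-GST detected bound protein, and masliner normalised the scans. E-scores from the Universal PBM Analysis Suite were given to each ungapped eight-base word pooled with its reverse complement.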

| Sequence | PBM E-score |
| --- | --- |
| CACTGCCC | -0.193 |
| AGGCGGCG | -0.174 |
| AAAGCGGA | 0.0463 |
| TCACCAGA | -0.106 |
| GGGTAGCA | -0.23 |
| CCCCGCTA | -0.113 |
| GGTCGTTA | -0.021 |
| GCCCAATA | -0.022 |
| ATTGTCAC | 0.297 |
| AGAGACCG | -0.0755 |
| CCTAACCA | -0.023 |
| AGCGACGA | 0.0578 |
| TACCATAA | 0.129 |
| GGGACGAC | 0.115 |
| TACAATAA | 0.214 |
| ATGTTGCA | -0.0862 |
| AAAGGTCA | 0.0381 |
| GTGCCACA | -0.149 |
| GAGTAGCC | -0.177 |
| TCCTTTAA | -0.0768 |
| CCCGCGTC | -0.032 |
| CGAGTGAC | 0.0781 |
| AATGTGCC | -0.101 |
| GGGAGACA | 0.249 |
| CCGCGAGC | -0.0826 |

| Sequence | PBM E-score |
| --- | --- |
| GCGTTACC | -0.246 |
| GTGTCGCA | 0.0382 |
| GCGACACA | 0.0733 |
| ATCGTAGG | 0.0259 |
| CACCAGTC | -0.274 |
| ACTGTGGG | -0.102 |
| ATATAATG | 0.107 |
| CGTAGATA | -0.0907 |
| CCGGGCAA | 0.17 |
| AGATTGCA | -0.0645 |
| AAGGGGGC | -0.354 |
| AGTGAAGC | -0.0638 |
| GGTAAACA | 0.123 |
| AGCTGAAC | -0.0193 |
| AAATCTGG | 0.182 |
| AGTTCCCC | -0.186 |
| TACTCGAA | -0.00961 |
| AAAGCATC | -0.0199 |
| AAGTAAGG | 0.0175 |
| ATGGGGAA | 0.0424 |
| GTGATCAC | -0.107 |
| AATCGACC | 0.0452 |
| AATGGGTA | 0.0862 |
| GCCCCTCC | -0.362 |
| AGGACTTA | 0.36 |

| Sequence | PBM E-score |
| --- | --- |
| CCTGCATA | -0.118 |
| CCCAGTAC | -0.157 |
| AACGGTAT | 0.0113 |
| CGCGGATC | -0.216 |
| CGCACAGC | -0.0276 |
| CGTCATAC | 0.19 |
| GAGAGAGA | -0.104 |
| GCCTTTAA | 0.0396 |
| AATTCGGC | -0.133 |
| CTGCGCGA | -0.108 |
| ATATGTGG | 0.0596 |
| AGACAACT | 0.147 |
| GCTTCGAA | 0.00535 |
| CTTCAGGC | -0.0893 |
| GTGTAAGA | 0.0844 |
| GGAACGAA | 0.0279 |
| ACCCCTTA | -0.166 |
| CTACCGTC | -0.0251 |
| CTAGAGAG | 0.0247 |
| GAGGTGTA | -0.208 |
| CAAGGGTG | -0.138 |
| ATCATTCA | 0.176 |
| CGATTAGC | -0.0473 |
| AACGGATC | 0.0584 |
| CGCTAGAG | -0.177 |

| Sequence | PBM E-score |
| --- | --- |
| GCGGATTA | -0.063 |
| TAAGGTAA | 0.113 |
| GCTGCAGC | -0.113 |
| CGGGTTAC | 0.0927 |
| ACTTTGCT | -0.0444 |
| TAAGTATA | 0.25 |
| GCGAGTAA | 0.172 |
| TCCCCAGA | -0.107 |
| ATAGACCA | -0.0849 |
| ATCACCGA | 0.148 |
| CATTGCGC | 0.0278 |
| AATTCCCT | 0.0545 |
| GGCACCAC | -0.138 |
| AACTGTGC | -0.0194 |
| CAAGCTCC | -0.195 |
| TCAGAACA | -0.00857 |
| AAGGAAGG | -0.154 |
| GCTGTCAA | -0.0112 |
| CACTAGTC | -0.0105 |
| GTGCACTA | 0.0251 |
| ACCAGTGC | -0.223 |
| CGGTAAGA | 0.00325 |
| AAGTGAGT | -0.0599 |
| CCCACGGG | -0.185 |
| AGTAATAC | -0.0836 |

| Sequence | PBM E-score |
| --- | --- |
| AGTGAATA | 0.00262 |
| GGCGCAAC | -0.158 |
| AAAGTAAC | 0.097 |
| ACCTCTAG | 0.0454 |
| ACGCCCAA | -0.0889 |
| CGGCTGGA | -0.126 |
| ATATTGCC | 0.0437 |
| AACACACC | 0.0499 |
| AGTACATC | 0.131 |
| ACAAAGTA | 0.172 |
| AGGCGCCC | -0.2 |
| CGACAGTA | -0.127 |
| AGTAAGAT | 0.0927 |
| AACTCTCA | 0.0216 |
| CTCCTGGC | -0.137 |
| GACTGGAA | -0.107 |
| CTTACGGA | -0.0601 |
| CGGAGAAG | -0.174 |
| CCCACAAA | 0.188 |
| AAATAGTG | 0.145 |
| CATCAAAC | -0.0523 |
| GGGTTGGA | -0.123 |
| CAGTGGGA | -0.0388 |
| AATCGGAT | 0.226 |
| CCAGTCGA | -0.14 |

| Sequence | PBM E-score |
| --- | --- |
| AGTCTTCG | 0.0625 |
| GGGAACGA | -0.121 |
| ACAGACCT | -0.0275 |
| GATCTACA | -0.0461 |
| AAAATTCA | 0.308 |
| CAAAGGTC | -0.128 |
| ACGGTTGA | -0.0648 |
| AGTACCCG | 0.0325 |
| TCTACCAA | 0.0596 |
| AGGGCAGA | -0.165 |
| ACCCTGGA | -0.225 |
| ATCGAGCG | -0.0861 |
| CCCTGTCA | -0.0892 |
| AATGCAAT | -0.162 |
| GGTTGTTA | 0.222 |
| CGAACCAG | 0.0199 |
| ACGGGTGC | -0.0788 |
| GCTGCCTA | -0.156 |
| AAATCTAC | 0.0823 |
| CGCCTTTA | -0.0643 |
| CAATTATA | 0.116 |
| CGGTAGTA | 0.0735 |
| GCTTGTGA | -0.196 |
| CCAGTCTA | -0.127 |
| CGGCACGA | 0.145 |

| Sequence | PBM E-score |
| --- | --- |
| ACACCTAG | 0.00645 |
| ACCTGTCA | 0.00165 |
| CACCTATG | -0.057 |
| CATGTTCC | 0.0014 |
| GCGTGCTA | -0.252 |
| CTGCTCTA | 0.041 |
| ATAGATGG | -0.327 |
| AAAGCGGT | 0.0231 |
| ATGTTCGC | -0.0354 |
| CAAGAGGC | -0.241 |
| CCTTCGAC | -0.0883 |
| GATCTCTA | -0.115 |
| ACTTAACG | -0.0158 |
| CACGCTGC | -0.184 |
| AGGTCCAC | -0.067 |
| ACAAGCGA | 0.202 |
| GAGCGGCC | -0.151 |
| CCTGATAC | 0.12 |
| AAATCTGT | 0.138 |
| CAGTGTTC | 0.00314 |
| CCACTGCG | -0.0568 |
| ATCTCGTC | 0.165 |
| AGCCCAAG | -0.267 |
| AAAATAGT | 0.0988 |
| CCAGTTGC | -0.24 |

| Sequence | PBM E-score |
| --- | --- |
| TGCCCCCA | -0.171 |
| TGAGAGCA | -0.137 |
| ACAGCGAA | -0.0342 |
| ATCATTAA | 0.207 |
| AACCAATA | 0.0128 |
| AAGTGTTG | 0.0761 |
| CCCCTCCG | -0.121 |
| TACAGTCA | 0.0587 |
| AACGAACC | 0.0557 |
| ACGAAGAC | 0.0468 |
| CGCTCTGA | -0.0541 |
| CCCCGGTC | -0.26 |
| CATCAGCA | -0.221 |
| CGTGGCTA | -0.128 |
| ACCGTTCG | 0.0205 |
| CATTGGGA | 0.146 |
| AATCAATA | 0.0582 |
| GATCCATC | -0.0507 |
| CTTCGTCA | 0.0472 |
| CGATACAC | -0.137 |
| CCCGCCAC | -0.135 |
| TACGCCAA | -0.191 |
| AAAGGGCG | -0.108 |
| CGCCGAGA | -0.0986 |
| ATTTGAAC | -0.0178 |

| Sequence | PBM E-score |
| --- | --- |
| ATAAATCC | 0.0224 |
| AACAAAGT | 0.157 |
| CCCGATTC | 0.142 |
| ACACTGAC | 0.119 |
| ACACGGGC | -0.00403 |
| AGTACTCC | -0.132 |
| CGTCAGCA | -0.129 |
| GATCTAAC | 0.0165 |
| AATTTTCT | 0.0709 |
| AACAGTCT | -0.0205 |
| AATATATG | 0.131 |
| AGTTCGCG | 0.0311 |
| ATAAAGCG | 0.179 |
| CCGTCCGC | -0.252 |
| GATGAGAA | -0.0683 |
| CAGGGTGC | -0.249 |
| AAGCAACA | -0.0649 |
| AAATAGAC | -0.015 |
| AGAGGTTG | -0.182 |
